# Reference: the supplement of paper PMC10498489
# The whole screen tested about 2,300 compounds, of which about 330 (14%) showed activity.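 The calls were made as follows: active = median modified Z-score above 1.96; inactive = 1.96 or below.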 The list shows a part of the results, in another mix than the full data.
# Tested on: HepG2 Srxn1-GFP reporter cells (+30 nM CDDO-Me)
# Test: Srxn1-GFP intensity median modified Z-score relative to plate median; higher = stronger NRF2 / oxidative stress reporter activation, active = hit call of the paper
# Details: 10 µM; exposure time: 24h
# Summary of the method: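 Values give the median, over replicates, of the modified Z-score of GFP intensity on each plate. HepG2 Srxn1-GFP BAC reporter cells were co-treated for 24 h with an NRF2 activator at 30 nM and compound at 10 μM (≤0.1% DMSO) in three replicate plates, then analysed per cell for cytoplasmic GFP on confocal images with at least 100 cells. Scaling used 1.4826 × median absolute deviation.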
row,SMILES,Srxn1-GFP intensity median modified Z-score
1,COc1cc(-c2coc3cc(O)c(OC)c(O)c3c2=O)cc(O)c1OC [euspeclibcmpd1394],inactive: 1.24
2,NC1(C(=O)O)CCCC1 [euspeclibcmpd1759],inactive: -0.415
3,COc1cc2cc3c4cc(OC)c(OC)cc4cc[n+]3c(C)c2cc1OC [euspeclibcmpd1974],inactive: 0.119
4,O=C(C=Cc1ccccc1)c1ccc(O)cc1O [euspeclibcmpd1990],active: 2.48
5,Cc1scc2c1N(C(=O)CN1CCN(C)CC1)c1ccccc1NC2=O [euspeclibcmpd763],inactive: 0.0543
6,Cc1cccc(Nc2ccccc2C(=O)OCC#N)c1C,inactive: 0.491
7,CC(=O)c1ccc(S(=O)(=O)NC(=O)NC2CCCCC2)cc1 [euspeclibcmpd1292],inactive: 0.678
8,COc1ccc(CN(CCN(C)C)c2ccccn2)cc1 [euspeclibcmpd258],inactive: -0.439
9,CCCNC(C)C(=O)Nc1ccccc1C (stereo not drawn) [euspeclibcmpd565],inactive: -0.4
10,CC(COc1ccccc1)N(CCCl)Cc1ccccc1 (stereo not drawn) [euspeclibcmpd203],active: 3.84
11,O=C(NCc1ccccc1)OCCO [euspeclibcmpd2412],inactive: -0.457
12,CN(C)CCN(Cc1cccs1)c1ccccn1 [euspeclibcmpd547],inactive: -0.889
13,NC(=O)N1c2ccccc2C=Cc2ccccc21 [euspeclibcmpd44],inactive: -0.0932
14,CCOc1cccc(C(=O)c2ccc(O)c(O)c2O)c1 [euspeclibcmpd1514],inactive: -0.219
15,O=c1cc(-c2ccc(O)cc2)oc2cc(O)cc(O)c12 [euspeclibcmpd1685],inactive: -0.332
16,CCOc1cc(/C=C/C(=O)O)ccc1OC,inactive: 0.394
17,CC(C)NCC(O)COc1ccc(COCCOC(C)C)cc1 (stereo not drawn) [euspeclibcmpd915],inactive: 0.0906
18,C#CCCCCCCCCCCCC(O)CC(O)CO (stereo not drawn) [euspeclibcmpd1458],active: 4.24
19,COc1c2ccoc2nc2c(OC)c(OCC(O)C(C)(C)O)ccc12 (stereo not drawn) [euspeclibcmpd1658],active: 26
20,OC[C@H]1O[C@@H](O[C@H]2[C@H](O)[C@@H](O)[C@@H](O)O[C@@H]2CO)[C@H](O)[C@@H](O)[C@@H]1O [euspeclibcmpd2099],inactive: -0.374
21,CC[C@H](/C=C/C(C)C1CCC2C3CC=C4CC(=O)CC[C@]4(C)C3CC[C@]12C)C(C)C (stereo partly drawn) [euspeclibcmpd1667],inactive: -0.11
22,COc1ccc2cc(C(C)C(=O)O)ccc2c1 (stereo not drawn) [euspeclibcmpd205],inactive: 0.182
23,Nc1ccc2cc3ccc(N)cc3nc2c1 [euspeclibcmpd1172],active: 35.6
24,Oc1ccc(C(O)O)[nH]1 [euspeclibcmpd1237],inactive: -0.421

row,SMILES,Srxn1-GFP intensity median modified Z-score
1,CC12CCC(CC1)C(C)(C)O2 [euspeclibcmpd124],inactive: -0.228
2,Cc1cc(CC(=O)O)n(C)c1C(=O)c1ccc(Cl)cc1 [euspeclibcmpd323],inactive: -0.111
3,CC(C)CC1NC(=O)C(CCCN)NC(=O)C(C(C)C)NC(=O)C(Cc2ccc(O)cc2)NC(CCC(=O)O)C(=O)NC(CC(N)=O)C(=O)C(Cc2ccccc2)NC(=O)C(Cc2ccccc2)NC(=O)C2CCCN2C(=O)C(Cc2ccccc2)NC1=O (stereo not drawn) [euspeclibcmpd1841],active: 2.86
4,COc1c(O)cccc1O [euspeclibcmpd1665],active: 3.35
5,C[C@@H]1CC2C3CC=C4CC(=O)C=C[C@]4(C)[C@@]3(Cl)[C@@H](O)C[C@]2(C)[C@@]1(OC(=O)c1ccco1)C(=O)CCl (stereo partly drawn) [euspeclibcmpd756],active: 2.37
6,O=C(NCC(O)CO)c1c(I)c(C(=O)NCC(O)CO)c(I)c(N(CCO)C(=O)CO)c1I (stereo not drawn) [euspeclibcmpd1078],inactive: -0.538
7,CC(=O)O[C@@H]1CC2C(C)(C)C(=O)C3OC3[C@]2(C)C2CC[C@@]3(C)[C@H](c4ccoc4)OC(=O)C4OC43[C@@]21C (stereo partly drawn) [euspeclibcmpd1644],active: 5.41
8,CC(=O)NC(CCC(C)C)C(=O)O (stereo not drawn),inactive: 1.23
9,C=CC1=C(C(=O)O)N2C(=O)C(NC(=O)C(=NO)c3csc(=N)[nH]3)C2SC1 (stereo not drawn) [euspeclibcmpd718],inactive: -0.455
10,CC1Cc2ccccc2N1NC(=O)c1ccc(Cl)c(S(N)(=O)=O)c1 (stereo not drawn) [euspeclibcmpd159],inactive: -0.418
11,O=C(O)C1CCCN1 (stereo not drawn) [euspeclibcmpd2273],inactive: -0.414
12,COC(=O)C(C)=CCC12OC(C)(C)C3CC(=CC4C(=O)c5c(OC)c6c(c(CC=C(C)C)c5OC431)OC(C)(CCC=C(C)C)C=C6)C2=O (stereo not drawn) [euspeclibcmpd2284],active: 55.9
13,O=c1cc[nH]c(=S)[nH]1 [euspeclibcmpd1261],inactive: 0.114
14,CC(=O)OC1CC2CCC1(C)C2(C)C (stereo not drawn) [euspeclibcmpd1103],inactive: -0.685
15,NCCC(=O)NC(Cc1c[nH]cn1)C(=O)O (stereo not drawn) [euspeclibcmpd1431],inactive: -0.178
16,O=C1CC2(CCCC2)CC(=O)N1CCCCN1CCN(c2ncccn2)CC1 [euspeclibcmpd948],inactive: 0.569
17,Cc1cc(/C=C/c2ccc3cc(N(C)C)ccc3[n+]2C)c(C)n1-c1ccccc1 [euspeclibcmpd260],active: 28.6
18,CCn1nc(C(=O)O)c(=O)c2cc3c(cc21)OCO3 [euspeclibcmpd65],inactive: 0.384
19,CC(C(=O)O)c1ccc(N2Cc3ccccc3C2=O)cc1 (stereo not drawn) [euspeclibcmpd335],inactive: -0.117
20,CN(C)CCOc1ccc(/C(=C(/CCCl)c2ccccc2)c2ccccc2)cc1 [euspeclibcmpd946],active: 93.7
21,O=C(NCCO[N+](=O)[O-])c1cccnc1 [euspeclibcmpd2369],inactive: 0.164
22,O=C(NCCO[N+](=O)[O-])c1cccnc1 [euspeclibcmpd2219],inactive: 0.164
23,CC1CC(OC(=O)C(O)c2ccccc2)CC(C)(C)N1C (stereo not drawn) [euspeclibcmpd2001],inactive: -0.576
24,CCCC1O[C@@H]2CC3C4CC=C5CC(=O)C=CC5(C)C4[C@@H](O)CC3(C)[C@]2(C(=O)CO)O1 (stereo partly drawn) [euspeclibcmpd352],inactive: -0.649
